From article PMC4336329 (PLoS ONE, 2015) come the findings set out here.

Screen size: about 310,000 compounds; about 2,200 (0.71%) showed an effect of 50% or more. Effects have a minus sign here. Some of the results follow.

human ether-à-go-go-related gene (hERG) potassium channel, sequence (Q12809 whole entry, looked up): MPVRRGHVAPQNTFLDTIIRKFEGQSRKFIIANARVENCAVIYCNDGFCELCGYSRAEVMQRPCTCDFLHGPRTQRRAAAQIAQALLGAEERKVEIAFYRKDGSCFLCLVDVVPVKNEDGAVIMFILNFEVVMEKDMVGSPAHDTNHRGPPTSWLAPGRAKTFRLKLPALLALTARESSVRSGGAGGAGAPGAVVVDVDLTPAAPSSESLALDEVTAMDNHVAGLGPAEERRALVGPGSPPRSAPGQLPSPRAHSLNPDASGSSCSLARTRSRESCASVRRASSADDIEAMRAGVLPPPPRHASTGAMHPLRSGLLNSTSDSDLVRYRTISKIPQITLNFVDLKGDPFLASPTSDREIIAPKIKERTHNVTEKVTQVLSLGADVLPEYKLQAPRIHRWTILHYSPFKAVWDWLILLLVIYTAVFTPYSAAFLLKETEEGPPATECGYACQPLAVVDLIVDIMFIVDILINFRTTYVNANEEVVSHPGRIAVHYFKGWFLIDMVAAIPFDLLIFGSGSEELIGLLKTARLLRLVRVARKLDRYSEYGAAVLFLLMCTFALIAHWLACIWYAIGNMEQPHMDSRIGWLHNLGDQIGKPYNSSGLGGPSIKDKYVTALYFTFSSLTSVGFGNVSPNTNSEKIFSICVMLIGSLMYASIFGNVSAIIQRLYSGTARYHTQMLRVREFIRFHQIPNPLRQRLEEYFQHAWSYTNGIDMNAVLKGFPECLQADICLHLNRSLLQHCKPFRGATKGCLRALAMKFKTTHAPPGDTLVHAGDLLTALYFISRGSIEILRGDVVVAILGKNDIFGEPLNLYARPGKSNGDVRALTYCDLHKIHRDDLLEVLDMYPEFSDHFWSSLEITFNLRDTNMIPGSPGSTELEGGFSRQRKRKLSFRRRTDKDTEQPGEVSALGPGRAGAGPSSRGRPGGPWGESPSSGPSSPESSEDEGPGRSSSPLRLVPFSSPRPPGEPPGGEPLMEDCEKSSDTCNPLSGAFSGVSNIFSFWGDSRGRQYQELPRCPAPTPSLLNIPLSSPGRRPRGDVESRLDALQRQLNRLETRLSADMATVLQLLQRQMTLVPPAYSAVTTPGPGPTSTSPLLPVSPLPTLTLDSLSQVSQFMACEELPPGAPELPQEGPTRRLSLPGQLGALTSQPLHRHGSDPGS

The experiment concerns the target human ether-à-go-go-related gene (hERG) potassium channel (human, UniProt Q12809). Briefly: primary screen, population patch clamp on CHO cells stably expressing hERG.
As to `CCOc1ccc(OCC)c(NC(=O)C2CCN(S(=O)(=O)c3cccnc3)CC2)c1`, the “hERG current change (%, negative = inhibition) at 1uM” value was -48.6%.

Consider `CCCC(=O)C1=C(O)C(C(=O)OC)C(C)(C)CC1=Nc1cccc([N+](=O)[O-])c1` (stereo not shown), for which the “hERG current change (%, negative = inhibition) at 1uM” value is recorded as 4.96%.

Take `COc1ccc(NC(=O)C2CCN(S(=O)(=O)c3cccc4cccnc34)CC2)cc1OC`: the “hERG current change (%, negative = inhibition) at 1uM” value is 14.5%.

Take `Cc1c(CCC(=O)O)c(=O)oc2c(C)c(OCc3cc4c(cc3Cl)OCO4)ccc12`: the “hERG current change (%, negative = inhibition) at 1uM” value amounted to 14.7%.

Regarding `Cc1ccc(/C=N/NC(=O)c2ccoc2C)o1`, the “hERG current change (%, negative = inhibition) at 1uM” value stood at 13%.

With `O=C(c1ccc2c(=O)n(CCc3ccccc3)c(=O)[nH]c2c1)N1CCN(c2ccccc2)CC1`, the “hERG current change (%, negative = inhibition) at 1uM” value is recorded as 7.33%.

Take `Cc1ccc(C(=O)N2NC(c3ccc(F)cc3)C3C(=O)N(c4ccc(C)c(C)c4)C(=O)C32)cc1` (stereo not shown): the “hERG current change (%, negative = inhibition) at 1uM” value came to 10.6%.

For `S=c1[nH]nc(-c2ccc(Cl)cc2)n1CC1CCCO1` (stereo not shown), the “hERG current change (%, negative = inhibition) at 1uM” value is reported as 11.7%.

On to `CCCSC1=N/C(=C/c2ccsc2)C(=O)N1c1ccccc1`, for which the “hERG current change (%, negative = inhibition) at 1uM” value turned out to be 17.3%.

`O=C(Cn1nc(-c2ccco2)ccc1=O)Nc1ccc(Cl)c(Cl)c1`: the “hERG current change (%, negative = inhibition) at 1uM” value is given as 16.9%.

In the case of `CCc1c(C)nc2c(-c3ccccc3)c(C)[nH]n2c1=O`, the “hERG current change (%, negative = inhibition) at 1uM” value is 17.1%.

Regarding `CCCCn1c(-c2csc3c2CCCC3)n[nH]c1=S`, the “hERG current change (%, negative = inhibition) at 1uM” value was found to be 7.71%.

On to `NC(=O)COC(=O)CSc1ccc2ccccc2c1`, for which the “hERG current change (%, negative = inhibition) at 1uM” value is listed as 10.6%.

Take `COc1cc(OC)cc(C(=O)NCCCCCCNC(=O)c2cc(OC)cc(OC)c2)c1`: the “hERG current change (%, negative = inhibition) at 1uM” value came to 5.74%.

Turning to `O=C(CN1C(=O)C2CC=CCC2C1=O)Nc1ccc(S(=O)(=O)Nc2ncccn2)cc1` (stereo not shown), the “hERG current change (%, negative = inhibition) at 1uM” value was determined as 4.78%.

As for `CC(=O)Nc1cccc(C(=O)NNC(=O)c2n[nH]c(=O)c3ccccc23)c1`, the “hERG current change (%, negative = inhibition) at 1uM” value is -5.98%.

Take `CCC(C)(C)n1nnnc1C(C(C)C)N1CCN(C(=O)c2ccco2)CC1` (stereo not shown): the “hERG current change (%, negative = inhibition) at 1uM” value worked out at 1.04%.

With `Clc1ccc(C(c2nnnn2CCc2ccccc2)N2CCSCC2)cc1` (stereo not shown), the “hERG current change (%, negative = inhibition) at 1uM” value was 8.65%.

Turning to `CCN(CC(=O)Nc1ccc(N2CCOCC2)cc1)C(=O)c1ccc(C(F)(F)F)cc1`, the “hERG current change (%, negative = inhibition) at 1uM” value is given as 1.27%.

As for `Cc1ccccc1NC(=O)CCS(=O)(=O)c1ccc(Br)s1`, the “hERG current change (%, negative = inhibition) at 1uM” value was determined as 17.5%.

With `O=C1NCCCCC1NC1CC(=O)N(c2ccccc2)C1=O` (stereo not shown), the “hERG current change (%, negative = inhibition) at 1uM” value amounted to 9.27%.

As for `Cc1ccc(S(=O)(=O)CC(=O)NCc2ccc(Cl)cc2)cc1`, the “hERG current change (%, negative = inhibition) at 1uM” value was determined as 2.76%.

With `COc1ccccc1N1CCN(C(=O)CSc2nnc(NC(=O)C(C)C)s2)CC1`, the “hERG current change (%, negative = inhibition) at 1uM” value is 17.7%.

For `Cc1ccc(O)c(-c2cc(C(=O)NCc3ccncc3)[nH]n2)c1`, the “hERG current change (%, negative = inhibition) at 1uM” value turned out to be 8.05%.

Consider `CN(/N=C/c1ccncc1)c1cnn(-c2ccc(F)c(Cl)c2)c(=O)c1Cl`, for which the “hERG current change (%, negative = inhibition) at 1uM” value is recorded as -3.91%.

Regarding `CSc1nnc(-c2ccccc2)c(=O)[nH]1`, the “hERG current change (%, negative = inhibition) at 1uM” value came out at 12.4%.

On to `COc1ccc(C(=O)COc2ccc(NC(C)=O)cc2)cc1`, for which the “hERG current change (%, negative = inhibition) at 1uM” value is reported as 17%.

On to `O=S(=O)(Nc1cccc(-c2ccc3nncn3n2)c1)c1cc(F)ccc1F`, for which the “hERG current change (%, negative = inhibition) at 1uM” value is recorded as 1.78%.

With `COc1ccc(C(=O)Nc2ccnn2C2CCN(C(=O)C3CCOC3)CC2)cc1` (stereo not shown), the “hERG current change (%, negative = inhibition) at 1uM” value amounted to 13.1%.

As for `CCCC(=O)Nc1nnc(SCC(=O)Nc2ccc3c(c2)OCCO3)s1`, the “hERG current change (%, negative = inhibition) at 1uM” value turned out to be 11.5%.

On to `O=C(Nc1c(F)cc(F)cc1Br)C1CCCO1` (stereo not shown), for which the “hERG current change (%, negative = inhibition) at 1uM” value was determined as 8.63%.

In the case of `Cc1cc(C)nc(NN=C2CCCC2)n1`, the “hERG current change (%, negative = inhibition) at 1uM” value is 15.3%.

For `COc1ccc2cc(C(N)=O)c(=Nc3ccccc3)oc2c1`, the “hERG current change (%, negative = inhibition) at 1uM” value came out at 5.46%.

Turning to `O=C(NNC(=O)C1CCCO1)c1ccccc1Cl` (stereo not shown), the “hERG current change (%, negative = inhibition) at 1uM” value was -5.84%.

Take `CCOC(=O)N/N=C(\C)c1cccs1`: the “hERG current change (%, negative = inhibition) at 1uM” value stood at 16.5%.

In the case of `COc1cc2c(C(=O)N3CCOCC3)c(CSc3ccccc3)n(C)c2cc1Br`, the “hERG current change (%, negative = inhibition) at 1uM” value stood at 4.68%.

With `COc1ccc(C(=O)/C=C/C(=O)N(CC(=O)NC2CCCCC2)Cc2cccs2)c(O)c1`, the “hERG current change (%, negative = inhibition) at 1uM” value stood at 2.58%.

With `COc1ccccc1OCC(=O)NNC(=O)c1ccoc1C`, the “hERG current change (%, negative = inhibition) at 1uM” value is reported as 29.1%.

Turning to `Fc1ccc(Br)cc1SCCc1ccncc1`, the “hERG current change (%, negative = inhibition) at 1uM” value came to 4.36%.

For the compound `Cc1ccc(C)c(NC(=O)CSc2nnc(-c3ccccc3)o2)c1`, the “hERG current change (%, negative = inhibition) at 1uM” value is 5.58%.

Regarding `CCc1nc2ccc(C(=O)Nc3nnc(C)s3)cc2nc1CC`, the “hERG current change (%, negative = inhibition) at 1uM” value came out at 15.8%.

As for `O=C(CCC(=O)N/N=C/c1ccccc1O)NCc1ccccc1`, the “hERG current change (%, negative = inhibition) at 1uM” value worked out at 10.7%.

Consider `O=S1(=O)[C@H]2C[C@@H]3CC[C@]2(CN1Cc1cccc(F)c1)O3`, for which the “hERG current change (%, negative = inhibition) at 1uM” value worked out at 4.42%.

Take `O=S(=O)(c1ccccc1)N1CCC(n2nnc3cc(F)ccc32)CC1`: the “hERG current change (%, negative = inhibition) at 1uM” value is -10.7%.

As to `CCN1C(=O)CC2(C[N+]3(C)CCC2CC3)C1=O.[Br-]` (stereo not shown), the “hERG current change (%, negative = inhibition) at 1uM” value came out at 11.7%.

For `Cc1noc(C)c1COC(=O)c1cccc(S(=O)(=O)N2CCOCC2)c1`, the “hERG current change (%, negative = inhibition) at 1uM” value is 14%.

Turning to `CCC1CCCCN1CCCNC(=O)CNC(=O)c1nn(-c2ccc(OC)cc2)c(=O)c2ccccc12` (stereo not shown), the “hERG current change (%, negative = inhibition) at 1uM” value is 6.84%.

Take `COc1ccc(C(=O)OCC(=O)NC2CCCC2)cc1OC`: the “hERG current change (%, negative = inhibition) at 1uM” value came out at 12.8%.

With `Cc1ccc(-n2c(N)c(C(=O)N3CCCCC3)sc2=S)cc1`, the “hERG current change (%, negative = inhibition) at 1uM” value is given as 9.1%.

On to `CCOC(=O)C1CCN(C(=O)c2cccnc2Cl)CC1`, for which the “hERG current change (%, negative = inhibition) at 1uM” value was 10.6%.

As to `COc1ccc(S(=O)(=O)Cc2ccc(C(=O)N3CCN(c4cc(C)ccc4C)CC3)o2)cc1`, the “hERG current change (%, negative = inhibition) at 1uM” value stood at 6.46%.

Take `CCn1c(C)nc2cc(S(=O)(=O)N3CCCC3)ccc21`: the “hERG current change (%, negative = inhibition) at 1uM” value stood at 12.7%.

For `CN(C(=O)C1CCOC1)c1nnc(-c2cccnc2)s1` (stereo not shown), the “hERG current change (%, negative = inhibition) at 1uM” value was found to be 10.2%.

As for `COCc1cc(Sc2ccc(Br)cc2)nc(-c2ccccc2)n1`, the “hERG current change (%, negative = inhibition) at 1uM” value is listed as 13.2%.

For the compound `CC(C)Oc1ccc(CNC(=O)C2CCCN(S(=O)(=O)N3CCOCC3)C2)cc1` (stereo not shown), the “hERG current change (%, negative = inhibition) at 1uM” value stood at 4.66%.

For the compound `Cc1cccc(OCC(=O)O/N=C(\N)c2ccc(Cl)cc2)c1`, the “hERG current change (%, negative = inhibition) at 1uM” value came out at 21.2%.

For the compound `CCCn1c(=S)[nH]c2cc(C(=O)N3CCc4ccccc43)ccc2c1=O`, the “hERG current change (%, negative = inhibition) at 1uM” value is 15%.

`O=C(CN1C(=O)NC2(CCCCC2)C1=O)Nc1ccccc1N1CCCCC1`: the “hERG current change (%, negative = inhibition) at 1uM” value was found to be 1.41%.
